The list shows a part of the results.

B1: PhoQ; a variant is named by its letters at X, in order, P23837 (parent)
chain: MKKLLRLFFPLSLRVRFLLATAAVVLVLSLAYGMVALIGYSVSFDKTTFRLLRGESNLFYTLAKWENNKLHVELPENIDKQSPTMTLIYDENGQLLWAQRDVPWLMKMIQPDWLKSNGFHEIEADVNDTSLLLSGDHSIQQQLQEVREDDDDAEMTHSVAVNVYPATSRMPKLTIVVVDTIPVELKSSYMVWSWFIYVLSANLLLVIPLLWVAAWWSLRPIEALAKEVRELEEHNRELLNPATTRELTSLVRNLNRLLKSERERYDKYRTTLTDLTHSLKTPLXXLQXXLRSLRSEKMSVSDAEPVMLEQISRISQQIGYYLHRASMRGGTLLSRELHPVAPLLDNLTSALNKVYQRKGVNISLDISPEISFVGEQNDFVEVMGNVLDNACKYCLEFVEISARQTDEHLYIVVEDDGPGIPLSKREVIFDRGQRVDTLRPGQGVGLAVAREITEQYEGKIVAGESMLGGARMEVIFGRQHSAPKDE

The variants in the experiment derive from B1. Nature of the experiment: enrichment ratio after two sorts for PhoP signalling (ratio (wild type AVST 3.29)); higher = more functional. The settings on record: with PhoP (E. coli).
As to MDRA, the enrichment ratio was at most 0.25.
With GGWS the figure was at most 0.25; with DCGK, at most 0.25; with ANHS, at most 0.25.
With QDKM, the enrichment ratio is at most 0.25.
Under THKC stands at most 0.25.
With YHWG the figure was at most 0.25; with WARE, at most 0.25.
Under WKYP stands at most 0.25; under PTWM, at most 0.25.
In the case of QSHT, the enrichment ratio was at most 0.25.
With SNYA the figure was at most 0.25.
With HDVR the figure was at most 0.25; with INWQ, at most 0.25; with KNHK, at most 0.25.
For NMIQ, the enrichment ratio was at most 0.25.
Under RWDV stands at most 0.25; under RANL, at most 0.25.
For the variant FRLQ, the enrichment ratio was at most 0.25.
Under SGGE stands at most 0.25; under IIGD, at most 0.25.
With QCDR the figure was at most 0.25.
For MQIT, the enrichment ratio is at most 0.25.
With TEYF the figure was 2.14.
Turning to QSCA, the enrichment ratio was at most 0.25.
For the variant KEPL, the enrichment ratio was at most 0.25.
Under GNQI stands at most 0.25; under SISR, 6.33; under THKK, at most 0.25.
For the variant GPFP, the enrichment ratio is at most 0.25.
With WMGC the figure was at most 0.25; with AMPY, at most 0.25; with ILVM, at most 0.25.
With MSGR the figure was at most 0.25; with PPVW, at most 0.25; with DIRN, at most 0.25.
With QVNG the figure was 7.72; with IQSD, at most 0.25; with MNEL, at most 0.25.
On to DTQW, for which the enrichment ratio is at most 0.25.
On to NCMY, for which the enrichment ratio was at most 0.25.
With SGFV the figure was 0.722; with DVPR, at most 0.25.
On to RRHI, for which the enrichment ratio was at most 0.25.
Under KYIM stands at most 0.25; under LLWW, at most 0.25; under TQGP, at most 0.25.
On to MQQR, for which the enrichment ratio was at most 0.25.
IMTQ: the enrichment ratio is at most 0.25.
For the variant VFLD, the enrichment ratio is at most 0.25.
Regarding VSCL, the enrichment ratio is 7.25.
Under SPLD stands at most 0.25.
Under EPPW stands at most 0.25; under RMPI, at most 0.25.
Under EMSL stands at most 0.25; under VMDE, at most 0.25.
Regarding VAWA, the enrichment ratio was at most 0.25.
Under PRNH stands at most 0.25; under YFWL, at most 0.25; under QFMM, at most 0.25.
Turning to LQEG, the enrichment ratio is at most 0.25.
Regarding ECVT, the enrichment ratio is at most 0.25.
Under YRWQ stands at most 0.25; under VYAM, at most 0.25.
With LTNA, the enrichment ratio is at most 0.25.
As for KCAM, the enrichment ratio was at most 0.25.
Under NYNP stands at most 0.25; under DKSA, at most 0.25.
As to NTWL, the enrichment ratio is at most 0.25.
Under ALRL stands at most 0.25.
Under AYWK stands at most 0.25.
IDEV: the enrichment ratio was at most 0.25.
Take LMSK: the enrichment ratio is at most 0.25.
On to GRPL, for which the enrichment ratio is at most 0.25.
Under TLAS stands 3.83.
With YMTD the figure was at most 0.25; with KTLF, at most 0.25.
Consider RKPA, for which the enrichment ratio is at most 0.25.
Turning to HLDL, the enrichment ratio was at most 0.25.
As for KFMY, the enrichment ratio was at most 0.25.
For TDGQ, the enrichment ratio is at most 0.25.
Regarding LHPD, the enrichment ratio was at most 0.25.
With RNQK the figure was at most 0.25.
Turning to QHCG, the enrichment ratio is at most 0.25.
Under MKPK stands at most 0.25; under HAEF, at most 0.25; under GWNA, at most 0.25.
With MCMY the figure was at most 0.25; with YDDW, at most 0.25; with KTYA, at most 0.25.
With WDAA the figure was at most 0.25; with TTNG, 1.71.
With AHGH, the enrichment ratio is at most 0.25.
Turning to DRIF, the enrichment ratio was at most 0.25.
With CFSY the figure was at most 0.25; with IHIG, at most 0.25.
Under WTFY stands at most 0.25; under KEFI, at most 0.25; under PGAC, at most 0.25.
Under ELYY stands at most 0.25.
For the variant SAAC, the enrichment ratio turned out to be 1.38.
Regarding HALA, the enrichment ratio is at most 0.25.
Under FGGS stands at most 0.25; under SAAH, 9.48.
As to VVVW, the enrichment ratio was at most 0.25.
Under STIF stands 4.5; under FREK, at most 0.25; under YHKG, at most 0.25.
Consider AKCV, for which the enrichment ratio was 3.07.
Under NHNW stands at most 0.25.
Turning to DWPG, the enrichment ratio was at most 0.25.
Under MNME stands at most 0.25; under AIFC, at most 0.25; under AFCV, at most 0.25.
As to KMAN, the enrichment ratio is at most 0.25.
Take STDR: the enrichment ratio is at most 0.25.
As to DCSP, the enrichment ratio was at most 0.25.
As for PNVC, the enrichment ratio was 2.08.
In the case of QPSF, the enrichment ratio was at most 0.25.
With AFLL the figure was 1.68; with GHSA, at most 0.25; with FNNV, at most 0.25.
YNDN: the enrichment ratio was at most 0.25.
Consider VIHS, for which the enrichment ratio is at most 0.25.
Turning to RSDW, the enrichment ratio is at most 0.25.
As to VMNG, the enrichment ratio is at most 0.25.
With TKTL, the enrichment ratio was 16.
As for EKLG, the enrichment ratio was at most 0.25.
Consider NLDI, for which the enrichment ratio was at most 0.25.
Under PRRA stands at most 0.25.
As to PWCS, the enrichment ratio was at most 0.25.
Take YHCC: the enrichment ratio is at most 0.25.
As for FAAG, the enrichment ratio is at most 0.25.
Under MAEA stands at most 0.25; under GVRF, at most 0.25; under IYCS, at most 0.25.
Turning to QFDL, the enrichment ratio is at most 0.25.
Under DHCG stands at most 0.25; under NKMG, at most 0.25; under HTKE, at most 0.25.
DLAL: the enrichment ratio was at most 0.25.
With HQLR, the enrichment ratio was at most 0.25.
Under FAHQ stands at most 0.25; under PVQP, at most 0.25; under NRFG, at most 0.25.
Regarding NHDD, the enrichment ratio is at most 0.25.
With SIEN the figure was at most 0.25.
Under AVCN stands 6.
GHIQ: the enrichment ratio was at most 0.25.
As to REWT, the enrichment ratio was at most 0.25.
For TLPY, the enrichment ratio was at most 0.25.
For YACA, the enrichment ratio was at most 0.25.
KYDI: the enrichment ratio was at most 0.25.
